According to PubChem BioAssay AID485364 (National Center for Advancing Translational Sciences (NCATS), 2010):
About 11,000 (3.1%) of roughly 360,000 compounds were called active. The inconclusive results got no clear call from the source; some entries with a clear call stand among them for comparison. Calls come from the whole dose curve; as a rule, active = well fitted inhibition curve with a large enough effect; inconclusive = small, poorly fitted or top-dose-only effect; inactive = no such curve, though single readings can be large or run the other way. Potencies of inconclusive entries are left out as doubtful fits.

Biological target: Schistosoma mansoni thioredoxin glutathione reductase (TGR) (UniProt Q962Y6)
Test: qHTS Assay for the Inhibitors of Schistosoma Mansoni Peroxiredoxins; note: nearly all actives have a fitted effect of over 60% in size
Details: purified TGR, DTNB reduction, TNB absorbance 405 nm; activity change, negative = inhibition: at 114 µM (top of the series) unless noted
How it was run: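 Kinetic colorimetric format: TGR-catalysed, NADPH-driven DTNB reduction monitored via TNB absorbance. Enzyme dispensed at 20 nM; compound exposure 15 min at room temperature before reaction start.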
% is set by controls: 0 for no effect and ±100 for the full control effect; potency is the fitted concentration of half-maximal effect; tags give direction and shape of the fitted curve.

| SMILES | Potency | activity change, negative = inhibition |
| --- | --- | --- |
| Cc1ccc(NC(=O)CSCc2ccco2)cc1 | inconclusive [inhibitor, partial curve] | – |
| CC(=O)Nc1ccc(NC(=O)c2nc(S(=O)(=O)Cc3cccc(C)c3)ncc2Cl)cc1 | active: 7.08 µM | – |
| Cc1nnc(Sc2cc(C(=O)NCc3ccco3)c3ccccc3n2)s1 | inconclusive [inhibitor, partial curve] | – |
| Cc1ccccc1Sc1ncnc2onc(C)c12 | – | inactive: 3.53% |
| COCCn1nnnc1C(c1cc2cc(C)ccc2[nH]c1=O)N1CCCCCC1 (stereo not given) | inconclusive [inhibitor, full curve] | – |
| CCN(C(=O)c1coc(=O)c(Br)c1)c1ccc2c(c1)OCO2 | active: 44.7 µM | – |
| CCOc1ccc(-c2cc(OC(=O)c3ccc(OC)cc3)c3c(C)oc(C)c3c(=O)c2)cc1 | inconclusive [inhibitor, partial curve] | – |
| O=C1CC(c2cccc(O)c2)c2c(nc(SCc3ccccc3F)[nH]c2=O)N1 (stereo not given) | – | inactive: -5.72% |
| O=[N+]([O-])c1c(NCCO)cc(Sc2nc3ccccc3s2)c2nonc12 | active: 0.1 µM | – |
| CC(CCc1ccccc1)NC(=O)c1ccc(Cl)nc1 (stereo not given) | – | inactive: 7.96% |
| CC(Sc1nnc(Cc2cccs2)n1C1CCCCC1)C(=O)NCc1ccco1 (stereo not given) | active: 50.1 µM | – |
| COC(=O)CCC(=O)OC1(C)C(=O)C2=COC(c3ccc(OC)cc3)=CC2=C(Br)C1=O (stereo not given) | active: 7.94 µM | – |
| COc1ccc(CCN2CC(C(=O)NCc3ccco3)CC2=O)cc1OC (stereo not given) | inconclusive [inhibitor, partial curve] | – |
| C#CCOc1ccc(/C=C2/C(=O)ON=C2C)cc1Br | inconclusive [inhibitor, full curve] | – |
| O=C(C1=C[C@H](c2ccc(C(F)(F)F)cc2)C[C@H](OCCCCO)O1)N1CCN(Cc2ccccc2)CC1 | active: 35.5 µM | – |
| CCNC(=O)C/C(C)=N/NC(=O)C12CC3CC(CC(C3)C1)C2 | inconclusive [inhibitor, full curve] | – |
| O=C(Nc1ccccc1)c1ccc(N2CCN(c3ccccc3)CC2)c(S(=O)(=O)N2CCOCC2)c1 | – | inactive: -2.25% |
| O=C1c2ccccc2-c2nc3ccccc3nc21 | – | inactive: -1.56% |
| Cc1ccsc1/C=C/C1=Cc2c(sc(NC(=O)CSc3n[nH]c(N)n3)c2C#N)C(C)(C)C1 | inconclusive [inhibitor, partial curve] | – |
| CC(C)n1cnc2c(N(C)c3ccccc3)nc(N(CCN(C)C)Cc3ccccc3)nc21 | inconclusive [inhibitor, partial curve] | – |
| COc1cccc(OCc2cc(C(=O)N3CCN(c4ccccc4OC)CC3)no2)c1 | inconclusive [inhibitor, partial curve] | – |
| S=c1nc(-c2ccccc2)n(Cc2cccnc2)c2c1CCCC2 | inconclusive [inhibitor, partial curve] | – |
| N#Cc1c(N2CCCC(O)C2)nc(N)c2c(N)nc3c(c12)CC(=O)N3C12CC3CC(CC(C3)C1)C2 (stereo not given) | inconclusive [inhibitor, partial curve] | – |

| SMILES | Potency | activity change, negative = inhibition |
| --- | --- | --- |
| O=C(CSc1oc(-c2ccccc2)nc1S(=O)(=O)c1ccc(F)cc1)NCC1CCCO1 (stereo not given) | inconclusive [inhibitor, partial curve] | – |
| COc1cc(/C=C(\C#N)C(=O)Nc2ccccn2)ccc1O | active: 14.1 µM | – |
| COc1cccc(NC(=O)Cn2c(=O)cc(C)c3c(C)nn(-c4cccc(F)c4)c32)c1 | inconclusive [inhibitor, single point] | – |
| CCCNS(=O)(=O)c1ccc2nc(NC(=O)c3ccc(F)cc3)sc2c1 | – | inactive: -3.93% |
| COc1ccc(N2CCN(C(=O)c3cccc(-n4c(C)nc5cccnc54)c3)CC2)cc1 | inconclusive [inhibitor, full curve, poor fit] | – |
| CCC1=Nc2cc(C(=O)N3CCC4(CC3)OCCO4)ccc2Sc2ccccc21 | – | inactive: 6.05% |
| COc1cc(C(=O)OCc2cc(=O)n3nc(C4CCCCC4)sc3n2)cc(OC)c1OC | – | inactive: -12.4% |
| C#CCOCCOCCOCCNc1nc(N2CCN(C(=O)Cn3cc(CCCCN)nn3)CC2)nc(N2CCN(C(=O)Cn3cc(CCCCN)nn3)CC2)n1 | – | inactive: -14.1% |
| Nc1nc(SCC(=O)NNc2c(Cl)cc(Cl)cc2Cl)n[nH]1 | inconclusive [inhibitor, single point] | – |
| O=C(CSc1n[nH]c(=O)[nH]c1=O)c1ccccc1[N+](=O)[O-] | active: 44.7 µM | – |
| COc1cccc(-c2cn3c(n2)sc2cc(C(=O)NCCCc4ccccc4)ccc23)c1 | – | inactive: 1.2% |
| O=c1c2c(nc3nc(NCc4ccccc4Cl)[nH]n13)CCC2 | inconclusive [inhibitor, partial curve] | – |
| CN(C(=O)Cc1csc(-c2ccccc2)n1)c1c(N)n(Cc2ccccc2)c(=O)[nH]c1=O | inconclusive [inhibitor, partial curve, poor fit] | – |
| O=C(Cc1ccccc1)NCC1CCCO1 (stereo not given) | – | inactive: 0.901% |
| O=C1Nc2ccc(C(F)(F)F)cc2N2CCCC12 (stereo not given) | inconclusive [inhibitor, full curve, poor fit] | – |
| O=C(OCc1ccc([N+](=O)[O-])cc1)c1cc(S(=O)(=O)N2CCCCC2)ccc1N1CCOCC1 | inconclusive [inhibitor, partial curve, poor fit] | – |
| O=C1ON=C(c2ccccc2)/C1=C/c1ccc(O)cc1 | inconclusive [inhibitor, full curve, poor fit] | – |
| O=C(O)C1Nc2c(C(=O)N3CCOCC3)cccc2C2C=CCC12 (stereo not given) | inconclusive [inhibitor, full curve] | – |
| Cc1ccc(N2CCC(N3CCN(C)C(CCO)C3)CC2)cc1 (stereo not given) | inconclusive [inhibitor, partial curve] | – |
| CC(C(=O)O)N1C(=O)/C(=C/C=C/c2ccco2)SC1=S (stereo not given) | active: 7.08 µM | – |
| O=C(COC(=O)c1ccccc1[N+](=O)[O-])NNC(=O)c1cccs1 | – | inactive: 2.92% |
| CC1CCN(c2nc3c(c(=O)[nH]c(=O)n3C)n2CC(C)CSc2nnnn2-c2ccccc2)CC1 (stereo not given) | – | inactive: 3.87% |
